The campaign covered roughly 310,000 compounds. About 2,200 (0.71%) showed an effect of 50% or more. The effect is printed as a negative number. Some of the results follow.
Each compound was assayed against human ether-à-go-go-related gene (hERG) potassium channel (human, UniProt Q12809) (assay: primary screen, population patch clamp on CHO cells stably expressing hERG).
Sequence of human ether-à-go-go-related gene (hERG) potassium channel (Q12809 whole entry, looked up): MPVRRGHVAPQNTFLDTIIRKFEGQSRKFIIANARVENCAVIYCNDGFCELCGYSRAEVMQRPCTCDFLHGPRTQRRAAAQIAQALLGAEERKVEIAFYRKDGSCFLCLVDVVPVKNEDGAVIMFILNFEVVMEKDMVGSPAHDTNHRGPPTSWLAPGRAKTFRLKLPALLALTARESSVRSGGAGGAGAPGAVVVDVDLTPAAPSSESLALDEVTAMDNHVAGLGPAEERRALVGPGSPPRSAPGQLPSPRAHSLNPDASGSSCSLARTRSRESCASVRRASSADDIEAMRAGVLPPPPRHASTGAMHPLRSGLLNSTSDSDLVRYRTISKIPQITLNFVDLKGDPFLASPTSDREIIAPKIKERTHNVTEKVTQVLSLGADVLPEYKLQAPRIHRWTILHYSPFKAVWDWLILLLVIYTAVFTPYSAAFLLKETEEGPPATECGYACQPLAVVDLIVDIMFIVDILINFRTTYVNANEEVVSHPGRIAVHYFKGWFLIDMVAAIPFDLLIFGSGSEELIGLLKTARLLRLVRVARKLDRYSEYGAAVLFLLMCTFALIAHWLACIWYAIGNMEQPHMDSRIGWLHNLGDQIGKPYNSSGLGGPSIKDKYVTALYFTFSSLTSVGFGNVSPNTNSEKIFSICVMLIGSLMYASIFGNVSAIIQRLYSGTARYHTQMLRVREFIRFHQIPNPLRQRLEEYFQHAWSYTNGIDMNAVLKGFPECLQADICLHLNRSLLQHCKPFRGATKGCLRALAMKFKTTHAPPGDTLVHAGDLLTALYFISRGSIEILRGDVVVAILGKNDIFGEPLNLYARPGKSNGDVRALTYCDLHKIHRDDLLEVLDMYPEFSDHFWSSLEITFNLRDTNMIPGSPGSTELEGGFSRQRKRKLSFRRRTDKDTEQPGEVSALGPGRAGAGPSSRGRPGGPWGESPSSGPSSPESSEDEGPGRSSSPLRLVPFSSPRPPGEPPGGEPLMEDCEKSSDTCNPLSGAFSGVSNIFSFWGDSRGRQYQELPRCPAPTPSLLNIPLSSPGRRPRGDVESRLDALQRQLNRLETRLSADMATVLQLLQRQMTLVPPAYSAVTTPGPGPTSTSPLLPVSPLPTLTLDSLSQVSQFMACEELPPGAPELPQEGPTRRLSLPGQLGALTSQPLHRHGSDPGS

First: COc1ccc(CN2CCNC(=O)C2CC(=O)NC2CCCCCCC2)cc1C (stereo not drawn)
Second: COC(=O)c1ccc2c(=O)n(CC3CCCO3)c(=S)[nH]c2c1 (stereo not drawn)
The “hERG current change (%, negative = inhibition) at 1uM” value of the first is lower: 12.5% for the first, 14.9% for the second.

Going from `COc1ccc(N=C2SC(CC(=O)Nc3ccc(OC)cc3OC)C(=O)N2C)cc1` (stereo not drawn) to `CCC(C)[C@H](NC(=O)[C@@H]1Cc2ccccc2CN1)C(=O)NCc1ccc(OC)cc1` (stereo partly drawn), the “hERG current change (%, negative = inhibition) at 1uM” value falls from 1.39% to -2.07%.

Compared with `COc1cccc(C(C#N)N2CCCCC2)c1O` (stereo not drawn), `O=S(=O)(Nc1cccc(-c2ccc(N3CCCCCC3)nn2)c1)c1ccc(F)cc1` is higher in “hERG current change (%, negative = inhibition) at 1uM” value: -13.3% for the first, 14.4% for the second.

First: CCCCn1c(-c2ccncc2)nc2c1c(=O)[nH]c(=O)n2CC(C)C
Second: CCCC(=O)N(C)C1=Nc2ccc(Cl)cc2C(c2ccccc2)=[N+]([O-])C1
The “hERG current change (%, negative = inhibition) at 1uM” value of the first is lower: 6.11% for the first, 9.19% for the second.

Compared with `CCOC(=O)C1CCCN(C(=S)NC(=O)/C=C/c2ccc(F)cc2)C1` (stereo not drawn), `CCOc1ccccc1NC(=O)NNC(=O)COc1cccc(C)c1C` is higher in “hERG current change (%, negative = inhibition) at 1uM” value: -5.75% for the first, 2.31% for the second.

First: Cl.O=C(NCCCN1CCOCC1)c1coc2ccccc2c1=O
Second: Cc1ccc(-c2nn(-c3ccccc3)cc2C(=O)NCCCN2CCOCC2)cc1
The “hERG current change (%, negative = inhibition) at 1uM” value of the first is higher: 7.61% for the first, 3.91% for the second.

Going from `COCCCNC(=O)CCc1nnc(Cc2ccc(-c3ccccc3)cc2)o1` to `CCOc1ccc(CCNC(=O)c2ccc(CS(=O)Cc3ccc(Cl)cc3)o2)cc1` (stereo not drawn), the “hERG current change (%, negative = inhibition) at 1uM” value falls from 6.2% to -3.91%.

First: O=C(NCC(c1ccco1)N1CCc2ccccc2C1)c1cccc(Br)c1 (stereo not drawn)
Second: COc1cccc(C(=O)NC2CCCc3ccccc32)c1 (stereo not drawn)
The “hERG current change (%, negative = inhibition) at 1uM” value of the first is lower: 4.25% for the first, 13.6% for the second.

Going from `CC(=O)Nc1nc(C)c(C(C)(C)C)s1` to `COc1ccc2oc(C)c(C(=O)NN)c2c1`, the “hERG current change (%, negative = inhibition) at 1uM” value falls from 9.66% to 5.76%.

First: Cc1nnc2ccc(N3CCN(c4ccccn4)CC3)nn12
Second: O=C(c1ccc2c(=O)n3c(nc2c1)CCCCC3)N1CCN(c2ccccc2)CC1
The “hERG current change (%, negative = inhibition) at 1uM” value of the first is lower: -22.2% for the first, 13% for the second.

Going from `COc1ccc(C2N(C(=O)C(F)(F)F)C(C)CN2S(=O)(=O)c2ccc(C)cc2)cc1` (stereo not drawn) to `CC(=O)Nc1ccc(C(=O)OCC(=O)N(c2ccccc2)C2CCS(=O)(=O)C2)cc1` (stereo not drawn), the “hERG current change (%, negative = inhibition) at 1uM” value rises from 5.1% to 12.3%.

Compared with `C/C(=N\NC(=O)Cc1c(Cl)cccc1Cl)c1cccnc1`, `O=C(CSc1nc2ccccc2c(=O)n1-c1ccccc1)N/N=C/C=C/c1ccccc1[N+](=O)[O-]` is lower in “hERG current change (%, negative = inhibition) at 1uM” value: 12.8% for the first, 8.2% for the second.

Source: article PMC4336329 (PLoS ONE, 2015)
